This note sets out measurements from PMC4336329 (PLoS ONE, 2015).

The campaign covered roughly 310,000 compounds. About 14,000 (4.5%) showed an effect of 50% or more. Effects have a minus sign here. The list shows a part of the results.
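Further: peak tail current of the secondary pulse compared with the same well before compound.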

The target of this experiment is human ether-à-go-go-related gene (hERG) potassium channel (human, UniProt Q12809). The experiment is described as follows: primary screen, population patch clamp on CHO cells stably expressing hERG.
Chain of human ether-à-go-go-related gene (hERG) potassium channel (Q12809 whole entry, looked up): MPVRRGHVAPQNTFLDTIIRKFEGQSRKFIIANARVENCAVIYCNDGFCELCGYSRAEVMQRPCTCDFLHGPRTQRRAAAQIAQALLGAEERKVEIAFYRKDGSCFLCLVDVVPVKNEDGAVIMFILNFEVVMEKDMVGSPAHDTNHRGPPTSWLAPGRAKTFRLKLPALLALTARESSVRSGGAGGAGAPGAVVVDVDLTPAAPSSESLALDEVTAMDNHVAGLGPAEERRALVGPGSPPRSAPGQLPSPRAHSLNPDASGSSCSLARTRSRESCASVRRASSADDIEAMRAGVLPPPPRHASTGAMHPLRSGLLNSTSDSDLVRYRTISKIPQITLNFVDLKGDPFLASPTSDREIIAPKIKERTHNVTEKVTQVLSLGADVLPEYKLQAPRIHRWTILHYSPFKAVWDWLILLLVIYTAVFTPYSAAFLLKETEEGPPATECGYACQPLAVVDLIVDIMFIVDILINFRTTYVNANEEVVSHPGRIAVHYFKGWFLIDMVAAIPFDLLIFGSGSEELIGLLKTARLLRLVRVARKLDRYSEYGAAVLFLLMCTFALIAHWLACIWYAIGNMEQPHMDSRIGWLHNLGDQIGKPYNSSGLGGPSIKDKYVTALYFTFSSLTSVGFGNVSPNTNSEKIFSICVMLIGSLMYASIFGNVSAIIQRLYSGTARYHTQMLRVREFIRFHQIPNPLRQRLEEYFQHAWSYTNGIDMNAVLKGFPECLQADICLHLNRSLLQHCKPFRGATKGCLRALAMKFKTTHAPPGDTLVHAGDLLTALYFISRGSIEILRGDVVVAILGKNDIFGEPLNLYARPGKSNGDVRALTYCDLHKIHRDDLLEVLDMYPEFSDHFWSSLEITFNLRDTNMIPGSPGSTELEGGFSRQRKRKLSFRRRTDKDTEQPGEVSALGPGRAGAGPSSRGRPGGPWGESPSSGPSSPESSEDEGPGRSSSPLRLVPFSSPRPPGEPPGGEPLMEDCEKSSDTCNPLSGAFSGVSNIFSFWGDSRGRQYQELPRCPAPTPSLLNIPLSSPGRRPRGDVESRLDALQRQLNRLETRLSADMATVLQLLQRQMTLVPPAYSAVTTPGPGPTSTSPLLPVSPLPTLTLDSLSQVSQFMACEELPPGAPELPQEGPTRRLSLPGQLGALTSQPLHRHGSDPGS
For the compound `Cc1c(C(=O)/C=C/N(C)C)nnn1-c1ccc(Cl)c(Cl)c1`, the “hERG current change (%, negative = inhibition) at 10uM” value is given as -10.4%.

`Cn1c(=O)[nH]c(=O)c2c1nc(NCCCn1ccnc1)n2Cc1cccc(Br)c1`: the “hERG current change (%, negative = inhibition) at 10uM” value is listed as -6.39%.

As for `COc1cccc(NS(=O)(=O)c2cc(C)sc2C)c1`, the “hERG current change (%, negative = inhibition) at 10uM” value was found to be 2.94%.

For `O=C(c1cn(Cc2ccccc2)nc1-c1cccnc1)N1CCN(Cc2c(F)cccc2Cl)CC1`, the “hERG current change (%, negative = inhibition) at 10uM” value is recorded as -4.33%.

`Cc1occc1-c1n[nH]c(=S)n1-c1ccccc1`: the “hERG current change (%, negative = inhibition) at 10uM” value worked out at 6.26%.

Turning to `C[C@H](NS(=O)(=O)c1ccc(Cl)cc1)C(=O)OCC(=O)NC(=O)Nc1ccc2c(c1)OCCO2`, the “hERG current change (%, negative = inhibition) at 10uM” value is listed as -0.0565%.

As for `CCc1cccc2c(=O)c(C(=O)N3CCOCC3)c[nH]c12`, the “hERG current change (%, negative = inhibition) at 10uM” value is given as -1.15%.

As for `Cc1cc(=O)n(-c2ccccc2)n1-c1ccccc1`, the “hERG current change (%, negative = inhibition) at 10uM” value is recorded as -3.77%.

For `CCCCCCCSc1cc(OC)c(CCN(C)C)cc1OC.O=C(O)/C=C\C(=O)O`, the “hERG current change (%, negative = inhibition) at 10uM” value was -64.3%.

As to `CC1=CC(C)(C)n2c(O)c(N=NC(N)=S)c3cccc1c32`, the “hERG current change (%, negative = inhibition) at 10uM” value was -2.06%.

In the case of `OCC1(CC2CCCCO2)CCN(C/C=C/c2ccccc2)CC1` (centres unmarked), the “hERG current change (%, negative = inhibition) at 10uM” value is listed as -46%.

On to `O=C(CCCCCNC(=O)c1ccccc1)N/N=C/c1ccc(O)cc1O`, for which the “hERG current change (%, negative = inhibition) at 10uM” value is on record as 2.79%.

Consider `O=C1C2C3C=CC(CC3)C2C(=O)N1c1ccc2c(c1)OCO2` (centres unmarked), for which the “hERG current change (%, negative = inhibition) at 10uM” value worked out at 13.6%.

Consider `COC(=O)/C(=C\C(=O)c1ccc([N+](=O)[O-])cc1)Nc1ccc(OC)cc1`, for which the “hERG current change (%, negative = inhibition) at 10uM” value was 6.44%.

Turning to `CCCCCOc1ccc(Br)cc1/C(C)=N/NC1=NCCN1`, the “hERG current change (%, negative = inhibition) at 10uM” value was -70.1%.

Regarding `COc1cc(NC(=O)C2C3C=CC(C3)C2C(=O)O)ccc1NC(=O)c1ccccc1` (centres unmarked), the “hERG current change (%, negative = inhibition) at 10uM” value was 13.7%.

Turning to `CCN1CCN(c2nc3ccccn3c(=O)c2C=O)CC1`, the “hERG current change (%, negative = inhibition) at 10uM” value is on record as -7.28%.

With `O=C(Nc1cccc2ccccc12)N1CCN(Cc2ccccc2)CC1`, the “hERG current change (%, negative = inhibition) at 10uM” value is given as -4.23%.

Consider `CN1CCC2(CC1)C1CN(C)CC=C1C(C#N)=C(N)C2(C#N)C#N.O.[OH-]` (centres unmarked), for which the “hERG current change (%, negative = inhibition) at 10uM” value is reported as 14.1%.

Regarding `COC(=O)/C=C1/S/C(=N/N=C/c2ccco2)NC1=O`, the “hERG current change (%, negative = inhibition) at 10uM” value is given as 18.8%.

With `Cc1ccc(Cl)cc1NC(=O)C1CC(=O)N(C(C)C)C1` (centres unmarked), the “hERG current change (%, negative = inhibition) at 10uM” value was 16%.

With `N#CCCCCn1ccc(NC(=O)c2ccc(Cl)cc2O)n1`, the “hERG current change (%, negative = inhibition) at 10uM” value is given as 12.6%.

For `Br.COc1ccc(C(=O)Cn2c(NCCO)nc3ccccc32)cc1`, the “hERG current change (%, negative = inhibition) at 10uM” value was determined as 6.25%.

For `Cc1nn(-c2ccccc2)c(Cl)c1/C=N/NC(=O)c1cccc(S(=O)(=O)N2CCCC2)c1`, the “hERG current change (%, negative = inhibition) at 10uM” value came out at 16.1%.

Take `O=C(c1ccccc1)N1CCN(c2ccc([N+](=O)[O-])c(NCc3ccco3)c2)CC1`: the “hERG current change (%, negative = inhibition) at 10uM” value is -47.2%.

In the case of `CCCCOC(=O)Nc1nnc(/C=C/c2ccc(OC)cc2)s1`, the “hERG current change (%, negative = inhibition) at 10uM” value was determined as 5.8%.

On to `Cc1ccc(N(C)S(=O)(=O)c2cccc(C(=O)NCCCN3CCCC3=O)c2)cc1`, for which the “hERG current change (%, negative = inhibition) at 10uM” value is on record as -13.3%.

As to `Cc1ccc(CNC(=O)c2ccccc2-n2cnnn2)cc1`, the “hERG current change (%, negative = inhibition) at 10uM” value was determined as 9.73%.

Consider `O=C1CCC(C(=O)N2CCC(CO)(Cc3ccc(Cl)cc3)CC2)=NN1`, for which the “hERG current change (%, negative = inhibition) at 10uM” value was -32.5%.

Consider `Cc1cc(C)nc(SCCCNCc2ccc(Br)cc2)n1.Cl`, for which the “hERG current change (%, negative = inhibition) at 10uM” value is recorded as -36.1%.

Turning to `Cc1ccc(S(=O)(=O)NCC2CCC(C(=O)NCc3cccs3)CC2)cc1` (centres unmarked), the “hERG current change (%, negative = inhibition) at 10uM” value came out at 13.5%.

Turning to `Cc1c(OCc2ccccc2)cccc1OCc1ccccc1`, the “hERG current change (%, negative = inhibition) at 10uM” value came to 11.9%.

In the case of `CCCn1c(SCC(=O)Nc2ccc(NC(C)=O)cc2)nc2c1c(=O)n(C)c(=O)n2C`, the “hERG current change (%, negative = inhibition) at 10uM” value is given as -4.13%.

For `COC(=O)c1c(NC(=O)c2cccnc2)sc(C)c1C`, the “hERG current change (%, negative = inhibition) at 10uM” value is given as -22.2%.

Regarding `CN(CCO)c1ncnc2c1sc1nc(N3CCOCC3)c3c(c12)CCC3`, the “hERG current change (%, negative = inhibition) at 10uM” value is reported as -55.2%.

With `COC(=O)C1(CO)NC(c2ccc(C)cc2)C2C(=O)N(c3ccccc3)C(=O)C21` (centres unmarked), the “hERG current change (%, negative = inhibition) at 10uM” value stood at 4.66%.

On to `COc1ccc(CC(=O)OCC(=O)N2N=C(c3ccccc3)CC2c2ccc(OC)cc2)cc1` (centres unmarked), for which the “hERG current change (%, negative = inhibition) at 10uM” value stood at 9.45%.

On to `CN(C)CCCN=Cc1c(O)n(Cc2ccc3c(c2)OCO3)c(=O)c2ccccc12`, for which the “hERG current change (%, negative = inhibition) at 10uM” value is -49.1%.

For `Cc1ccc(NC2=C(Cl)C(=O)N(C3CCCCC3)C2=O)cc1`, the “hERG current change (%, negative = inhibition) at 10uM” value turned out to be 16.2%.

For the compound `Cc1cc(NC(=O)CN2CCCC(C)C2)no1.O=C(O)C(=O)O` (centres unmarked), the “hERG current change (%, negative = inhibition) at 10uM” value was determined as 10.7%.

Take `O=C(Nc1ccc(N2CCOCC2)cc1)c1ccc(Br)o1`: the “hERG current change (%, negative = inhibition) at 10uM” value is on record as -1.81%.

`COc1ccc(Cl)cc1NC(=O)CN(C)CC(=O)Nc1ccccc1-c1ccccc1`: the “hERG current change (%, negative = inhibition) at 10uM” value is -1.82%.

As to `O=C(O)c1ccc(S(=O)(=O)N2CCOCC2)o1`, the “hERG current change (%, negative = inhibition) at 10uM” value was 14.8%.

Regarding `CO/N=C/c1ccc(Sc2ccccc2N)c([N+](=O)[O-])c1`, the “hERG current change (%, negative = inhibition) at 10uM” value was -0.11%.

Turning to `COc1ccc(C)cc1NC(=O)c1ccc2c(=O)n3c(nc2c1)CCCCC3`, the “hERG current change (%, negative = inhibition) at 10uM” value was -42.5%.

For `O=C(c1ccc(-c2ccccc2)cc1)c1ccc([N+](=O)[O-])cc1`, the “hERG current change (%, negative = inhibition) at 10uM” value came out at 6.9%.

Take `CNc1ccc(S(=O)(=O)NCC(=O)NCCCc2ccccc2)cc1[N+](=O)[O-]`: the “hERG current change (%, negative = inhibition) at 10uM” value was -9.64%.

For the compound `CCCc1cc(C(=O)Nc2sc(C(C)=O)c(C)c2C(=O)OCC)no1`, the “hERG current change (%, negative = inhibition) at 10uM” value was -6.72%.

Regarding `Cc1ccc(S(=O)(=O)n2nc(OC(=O)C3CCCCC3)cc2N)cc1`, the “hERG current change (%, negative = inhibition) at 10uM” value is given as -19.2%.

With `COC(=O)CSC1=C(C#N)C(c2ccc3c(c2)OCO3)C2=C(CCCC2=O)N1` (centres unmarked), the “hERG current change (%, negative = inhibition) at 10uM” value is listed as -5.49%.

Consider `N#Cc1ccc(-n2c(-c3ccccc3)nnc2-c2ccccc2)cc1C#N`, for which the “hERG current change (%, negative = inhibition) at 10uM” value was -15.5%.

For the compound `CCOC(=O)C1(Cc2ccc(Cl)cc2)CCN(C(C)CCn2cccn2)CC1` (centres unmarked), the “hERG current change (%, negative = inhibition) at 10uM” value is on record as -87.2%.

Take `CC(C)n1c(SCc2cc(=O)[nH]c3ccccc23)nc2c1c(=O)n(C)c(=O)n2C`: the “hERG current change (%, negative = inhibition) at 10uM” value was -7.13%.

Consider `Cc1ccc(N2C(=O)CC(NNc3nc4ccccc4s3)C2=O)cc1` (centres unmarked), for which the “hERG current change (%, negative = inhibition) at 10uM” value is -3.18%.

Consider `Cc1cccc2cc(C#N)c(SCC(=O)N3CC(=O)Nc4ccccc43)nc12`, for which the “hERG current change (%, negative = inhibition) at 10uM” value is given as 2.24%.

`CCCN(CC(=O)Nc1ccccc1C)C(=O)c1ccc(-c2ccccc2)cc1`: the “hERG current change (%, negative = inhibition) at 10uM” value is -10.5%.
